Test results taken from the supplement of paper PMC12645437, “Orthogonal IMiD-Degron Pairs Induce Selective Protein Degradation in Cells” (ACS Chemical Biology, 2025).
The list shows a part of the results.

B1: Q9UKT9 (peptide)
chain: FSCPICGRRFTQKGNLLRHIKL
B2: Q9UKT9 (peptide)
chain: LLCPICGFDCTQKGNLLRHIKL
B3: Q9UKT9 (peptide)
chain: FFCPQCGANFTQKGNLLRHIKL
B4: Q9UKT9 (peptide)
chain: FFCNICGAMFTQKGNLLRHIKL
B5: Q9UKT9 (peptide)
chain: FICDICGAHFTQKGNLLRHIKL
B6: Q9UKT9 (peptide)
chain: FTCNVCGAFFTQKGNLLRHIKL
B7: Q9UKT9 (peptide)
chain: FTCEQCGAFFTQKGNLLRHIKL
B8: Q9UKT9 (peptide)
chain: FVCPICGHNFTQKGNLLRHIKL
B9: Q9UKT9 (peptide)
chain: FNCDQCGAEFTQKGNLLRHIKL
B10: Q9UKT9 (peptide)
chain: FICPICGAYFTQKGNLLRHIKL
B11: Q9UKT9 (peptide)
chain: FNCEICGRDFTQKGNLLRHIKL
B12: Q9UKT9 (peptide)
chain: FRCDVCGALFTQKGNLLRHIKL
B13: Q9UKT9 (peptide)
chain: FGCNQCGHKFTQKGNLLRHIKL
B14: Q9UKT9 (peptide)
chain: FRCNICGAVFTQKGNLLRHIKL
B15: Q9UKT9 (peptide)
chain: FSCEQCGAIFTQKGNLLRHIKL
B16: Q9UKT9 (peptide)
chain: FMCNICGALFTQKGNLLRHIKL
B17: Q9UKT9 (peptide)
chain: FECNQCGRLFTQKGNLLRHIKL
B18: Q9UKT9 (peptide)
chain: FQCPICGRVFTQKGNLLRHIKL
B19: Q9UKT9 (peptide)
chain: FSCEVCGATFTQKGNLLRHIKL
B20: Q9UKT9 (peptide)
chain: LCCPICGFICTQKGNLLRHIKL
B21: Q9UKT9 (peptide)
chain: LNCPICGFQCTQKGNLLRHIKL
B22: Q9UKT9 (peptide)
chain: LQCNQCGFRCTQKGNLLRHIKL
B23: Q9UKT9 (peptide)
chain: FYCEQCGARFTQKGNLLRHIKL
B24: Q9UKT9 (peptide)
chain: FQCPVCGAHFTQKGNLLRHIKL
B25: Q9UKT9 (peptide)
chain: FTCPICGATFTQKGNLLRHIKL
B26: Q9UKT9 (peptide)
chain: FDCDVCGACFTQKGNLLRHIKL
B27: Q9UKT9 (peptide)
chain: FNCNICGAEFTQKGNLLRHIKL
B28: Q9UKT9 (peptide)
chain: FTCEICGARFTQKGNLLRHIKL
B29: Q9UKT9 (peptide)
chain: FWCNQCGHVFTQKGNLLRHIKL
B30: Q9UKT9 (peptide)
chain: LGCNQCGFSCTQKGNLLRHIKL
B31: Q9UKT9 (peptide)
chain: FVCNQCGRCFTQKGNLLRHIKL
B32: Q9UKT9 (peptide)
chain: FCCSVCGHQFTQKGNLLRHIKL

target: no compound (DMSO); assay: log2 fold change of degron read counts, EGFP-low vs EGFP+ sorted cells; higher = lower degron-EGFP level without compound (poor expression or instability); settings: compound: DMSO control; 18 h
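Note: jurkat cells carrying a lentiviral library of mutant zinc finger degrons fused to EGFP plus mCherry, mCherry+ cells FACS sorted, degron abundance counted by next-generation sequencing.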

Sequence	log2 fold change of degron read counts
B1	-0.157
B2	0.901
B3	0.149
B4	0.326
B5	-0.849
B6	0.459
B7	-1.11
B8	-0.66
B9	-3.34
B10	1.1
B11	-2.53
B12	-0.972
B13	0.965
B14	-0.398
B15	-1.31
B16	0.968

Sequence	log2 fold change of degron read counts
B17	-0.966
B18	0.352
B19	-2.04
B20	1.47
B21	0.586
B22	0.708
B23	-0.645
B24	-0.0873
B25	-0.65
B26	-1.43
B27	-0.712
B28	-1.1
B29	1.07
B30	0.828
B31	-0.418
B32	-1.19
